Test results taken from patent publication US20230181756A1, “CCR7 ANTIBODY DRUG CONJUGATES FOR TREATING CANCER” (Novartis AG, priority 2020, published 2023).

Experiments:
hCCR7 (CHO-flpin-hCCR7) = biological target: T1, hCCR7 (CHO-flpin-hCCR7) (Homo sapiens, UniProt P32248); assay: β-Arrestin assay, antagonistic mode (hCCL19); format: cell-based; details: antibody 0.5 μM, hCCL19 titrated, FIGS. 4B, 4C
T1 construct: host or cells: CHO-flpin (doxycycline-induced)
T1 sequence (P32248 25-378): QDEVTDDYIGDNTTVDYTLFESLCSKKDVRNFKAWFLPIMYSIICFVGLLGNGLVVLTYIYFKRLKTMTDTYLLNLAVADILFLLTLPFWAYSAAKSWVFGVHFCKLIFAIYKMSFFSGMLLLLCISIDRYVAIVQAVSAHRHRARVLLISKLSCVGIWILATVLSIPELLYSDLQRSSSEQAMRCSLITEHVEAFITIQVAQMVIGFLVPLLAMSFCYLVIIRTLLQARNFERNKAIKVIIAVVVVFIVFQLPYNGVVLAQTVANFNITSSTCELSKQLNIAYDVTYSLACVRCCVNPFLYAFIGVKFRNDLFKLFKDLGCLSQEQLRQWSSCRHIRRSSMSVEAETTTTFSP
Protocol: To determine functionality of the anti-CCR7 antibodies, the β-Arrestin assay was performed using the PathHunter Flash Detection Kit from DiscoverX (#93-0247) either in agonistic mode for assessment of agonistic function or antagonistic mode for assessment of antagonistic function.
In the antagonistic mode, CHO-flpin-hCCR7 cells were seeded as described above. The next day, a 6× working solution (0.5 μM×6=3.0 μM) in 1× assay buffer was made for each test antibody or positive control MAB197 (R&D reference antibody; ligand antagonist) or negative control hIgG. 5 μl of the 6× working solution of antibodies or controls were added to each well, briefly spun down, and incubated at 37° C./5% CO2 for 30 min. During incubation, serial dilutions of a 6× working solution in 1× assay buffer were made for hCCL19. Following incubation, 5 μl of the 6× working solution of hCCL19 were added to each well, briefly spun down, and incubated at 37° C./5% CO2 for 90 min. Following incubation, 25 μl of detection reagent were added to each well, incubated at room temperature in the dark while shaking for 20 min. Then, the luminescence signal for enzyme activity was measured on the Envision machine and analyzed in Excel.

CCR7 immunogen scaffold = biological target: T2, CCR7 immunogen scaffold (Homo sapiens, UniProt P32248, C210S); assay: Epitope binning using Octet Red96 system (BLI); format: binding; details: pairwise competition, 100 nM antibody
T2 construct: made in house
Protocol: Epitope binning of anti-hCCR7 parental antibodies was performed using the Octet Red96 system (ForteBio, USA) that measures biolayer interferometry (BLI). The CCR7 immunogen scaffold was biotinylated via an AviTag™ utilizing BirA biotin ligase according to Manufacturer's recommendations (Avidity, LLC, USA cat #BirA500). The biotinylated immunogen scaffold was loaded at 1.5 μg/ml onto pre-equilibrated streptavidin sensors (ForteBio, USA). The sensors were then transferred to a solution containing 100 nM antibody A in 1× kinetics buffer (ForteBio, USA). Sensors were briefly washed in 1× kinetics buffer and transferred to a second solution containing 100 nM of competitor antibody. Binding kinetics was determined from raw data using the Octet Red96 system analysis software (Version 6.3, ForteBio, USA). Antibodies were tested in all pairwise combinations, as both Antibody A and as competitor antibody.

T2 sequence (P32248 with tags, fused parts or gaps, stated change not applied): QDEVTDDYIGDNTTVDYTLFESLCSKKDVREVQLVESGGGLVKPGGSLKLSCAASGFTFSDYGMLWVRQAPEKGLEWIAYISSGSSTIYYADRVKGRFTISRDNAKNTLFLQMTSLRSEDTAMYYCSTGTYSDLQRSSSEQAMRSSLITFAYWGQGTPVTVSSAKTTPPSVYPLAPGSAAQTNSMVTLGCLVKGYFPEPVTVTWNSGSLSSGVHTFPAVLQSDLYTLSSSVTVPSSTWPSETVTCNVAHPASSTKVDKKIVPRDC
T2 sequence (as listed by the source partner): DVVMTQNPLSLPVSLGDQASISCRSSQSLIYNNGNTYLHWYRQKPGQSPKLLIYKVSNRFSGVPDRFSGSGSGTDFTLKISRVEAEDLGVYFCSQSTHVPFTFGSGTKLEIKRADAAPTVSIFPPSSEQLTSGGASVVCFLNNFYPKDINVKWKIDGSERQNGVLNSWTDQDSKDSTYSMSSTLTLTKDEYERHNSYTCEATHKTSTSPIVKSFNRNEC

B1: 684E12 Parental: parental anti-CCR7 antibody derived from the murine hybridoma 684E12 (antibody, V domains shown)
VH: EVHLVESGGGLVKPGGSLKLSCAASGFTFSNFAMSWVRQTPEKRLEWVATISTGGTYTYYPDSVKGRFTISRDNAKKTLYLQMSSLRSEDTAMYYCTRRGYDGVDKWGQGTTLTVSS
VL: DVVMTQTPLTLSVTIGQPASISCKSGQSLLDSDGKTYLNWFLQRPGQSPKRLIYLVSKLDSGVPDRFTGSGSGTDFTLKISRVEAEDLGVYYCWQGTHFPQTFGGGTKLEIK
functionality in antagonistic format (hCCR7 (CHO-flpin-hCCR7)): weak antagonist
Bin (epitope binning) (CCR7 immunogen scaffold): 1
